Data: the supplement of paper PMC4604168 (melanoma cell lines)
Some of the results follow. Single values are uncertain, as repeats are few or missing.

Assays:
Experiment in all cases: cell count relative to DMSO control; melanoma cells; higher = more viable cells
Conditions in all cases: library dose: low library concentration; 72 h
COLO792 = test system: COLO792
COLO800 = test system: COLO800
COLO829 = test system: COLO829
G361 = test system: G361
IPC-298 = test system: IPC-298
IST-MEL1 = test system: IST-MEL1
LB2518-MEL = test system: LB2518-MEL
LOXIMVI = test system: LOXIMVI
MEL-HO = test system: MEL-HO
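Further: cell number obtained by counting DAPI-stained nuclei in high-throughput microscope images with image analysis software, screen run in 1,536-well plates.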

## O=C(CCCCCCC(=O)Nc1ccccc1)NO [vorinostat] + CC1(C)NC(=O)N(c2ccc([N+](=O)[O-])c(C(F)(F)F)c2)C1=O [nilutamide] (first compound 0.08 µM, partner dose 1 µM)
COLO792
  cell count: 95.4%
COLO800
  cell count: 132%
COLO829
  cell count: 127%
G361
  cell count: 106%
IPC-298
  cell count: 108%
IST-MEL1
  cell count: 98.7%
LB2518-MEL
  cell count: 90.9%
LOXIMVI
  cell count: 116%
MEL-HO
  cell count: 97.2%

## OCc1c[nH]c2ccccc12 [Indole-3-carbinol] + COc1ccc(-c2ccc3c(N4CCOCC4)nc(N4C[C@@H](C)O[C@@H](C)C4)nc3n2)cc1CO [KU0063794] (first compound 0.8 µM, partner dose 0.02 µM)
COLO792
  cell count: 87.8%
COLO800
  cell count: 111%
COLO829
  cell count: 90.5%
G361
  cell count: 102%
IPC-298
  cell count: 97.5%
IST-MEL1
  cell count: 93.5%
LB2518-MEL
  cell count: 82.9%
LOXIMVI
  cell count: 91.3%
MEL-HO
  cell count: 90.4%

## Clc1ccc(Nc2nnc(Cc3ccncc3)c3ccccc23)cc1 [vatalanib] + CCN(CC)CCCCNc1ncc2cc(-c3cc(OC)cc(OC)c3)c(NC(=O)NC(C)(C)C)nc2n1 [PD173074] (first compound 2 µM, partner dose 0.1 µM)
COLO792
  cell count: 82%
COLO800
  cell count: 72.2%
COLO829
  cell count: 83.8%
G361
  cell count: 95.7%
IPC-298
  cell count: 98.8%
IST-MEL1
  cell count: 98.7%
LB2518-MEL
  cell count: 101%
LOXIMVI
  cell count: 95.4%
MEL-HO
  cell count: 93.6%

## COCC[n+]1c2c(n(Cc3cnccn3)c1C)C(=O)c1ccccc1C2=O + NC(=O)Nc1cc(-c2cccc(F)c2)sc1C(=O)N[C@H]1CCCNC1 [AZD7762] (first compound 0.0004 µM, partner dose 0.02 µM)
COLO792
  cell count: 120%
COLO800
  cell count: 79.8%
COLO829
  cell count: 108%
G361
  cell count: 121%
IPC-298
  cell count: 97.1%
IST-MEL1
  cell count: 97.7%
LB2518-MEL
  cell count: 117%
LOXIMVI
  cell count: 82.4%
MEL-HO
  cell count: 94.9%

## Cn1c(Nc2ccc(C(F)(F)F)cc2)nc2cc(Oc3ccnc(-c4ncc(C(F)(F)F)[nH]4)c3)ccc21 + CC(C)(C)c1cnc(CSc2cnc(NC(=O)C3CCNCC3)s2)o1 [SNS-032] (first compound 0.08 µM, partner dose 0.01 µM)
COLO792
  cell count: 39.3%
COLO800
  cell count: 61.9%
COLO829
  cell count: 81.8%
G361
  cell count: 64.5%
IPC-298
  cell count: 57.4%
IST-MEL1
  cell count: 89.2%
LB2518-MEL
  cell count: 52.9%
LOXIMVI
  cell count: 64.2%
MEL-HO
  cell count: 68.1%

## Clc1ccc(Nc2nnc(Cc3ccncc3)c3ccccc23)cc1 [vatalanib] + CC1(C)NC(=O)N(c2ccc([N+](=O)[O-])c(C(F)(F)F)c2)C1=O [nilutamide] (first compound 2 µM, partner dose 1 µM)
COLO792
  cell count: 91.1%
COLO800
  cell count: 78.8%
COLO829
  cell count: 96.8%
G361
  cell count: 111%
IPC-298
  cell count: 95.8%
IST-MEL1
  cell count: 99.5%
LB2518-MEL
  cell count: 95.5%
LOXIMVI
  cell count: 99.5%
MEL-HO
  cell count: 90.3%

## Nc1cccc2c1CN(C1CCC(=O)NC1=O)C2=O (centres undefined) [lenalidomide] + Cc1ccc(NC(=O)c2cccc(N(C)C)c2)cc1NC(=O)c1ccc(O)cc1 [ZM336372] (first compound 1 µM, partner dose 2 µM)
COLO792
  cell count: 101%
COLO800
  cell count: 142%
COLO829
  cell count: 88.3%
G361
  cell count: 110%
IPC-298
  cell count: 87.8%
IST-MEL1
  cell count: 90.9%
LB2518-MEL
  cell count: 83.3%
LOXIMVI
  cell count: 177%
MEL-HO
  cell count: 101%

## C#Cc1cccc(Nc2ncnc3cc(OCCOC)c(OCCOC)cc23)c1 [erlotinib] + OCCn1cc(-c2cnc3nnn(Cc4ccc5ncccc5c4)c3n2)cn1 [PF04217903] (first compound 0.8 µM, partner dose 1 µM)
COLO792
  cell count: 79.7%
COLO829
  cell count: 82.1%
G361
  cell count: 107%
IPC-298
  cell count: 95.1%
IST-MEL1
  cell count: 99.3%
LOXIMVI
  cell count: 130%
MEL-HO
  cell count: 104%

## OCc1c[nH]c2ccccc12 [Indole-3-carbinol] + COc1cc(Nc2ncc(F)c(Nc3ccc4c(n3)NC(=O)C(C)(C)O4)n2)cc(OC)c1OC [Tamatinib] (first compound 0.8 µM, partner dose 0.4 µM)
COLO792
  cell count: 68.2%
COLO800
  cell count: 72.1%
COLO829
  cell count: 71.9%
G361
  cell count: 94.2%
IPC-298
  cell count: 68.4%
IST-MEL1
  cell count: 89.6%
LB2518-MEL
  cell count: 90.6%
LOXIMVI
  cell count: 71.2%
MEL-HO
  cell count: 90.8%

## O=C(CCCCCCC(=O)Nc1ccccc1)NO [vorinostat] + CO[C@@H]1[C@H](N(C)C(=O)c2ccccc2)C[C@H]2O[C@]1(C)n1c3ccccc3c3c4c(c5c6ccccc6n2c5c31)C(=O)NC4 [Midostaurin] (first compound 0.08 µM, partner dose 0.08 µM)
COLO792
  cell count: 90.8%
COLO800
  cell count: 90.8%
COLO829
  cell count: 74%
G361
  cell count: 67.7%
IPC-298
  cell count: 91.4%
IST-MEL1
  cell count: 92%
LB2518-MEL
  cell count: 79.4%
LOXIMVI
  cell count: 85.3%
MEL-HO
  cell count: 94.4%

## Clc1ccc(Nc2nnc(Cc3ccncc3)c3ccccc23)cc1 [vatalanib] + COc1cc(Nc2ncc(F)c(Nc3ccc4c(n3)NC(=O)C(C)(C)O4)n2)cc(OC)c1OC [Tamatinib] (first compound 2 µM, partner dose 0.4 µM)
COLO792
  cell count: 60.7%
COLO800
  cell count: 54%
COLO829
  cell count: 97%
G361
  cell count: 112%
IPC-298
  cell count: 75.5%
IST-MEL1
  cell count: 103%
LOXIMVI
  cell count: 44.1%
MEL-HO
  cell count: 78.2%

## Cn1c(Nc2ccc(C(F)(F)F)cc2)nc2cc(Oc3ccnc(-c4ncc(C(F)(F)F)[nH]4)c3)ccc21 + Cc1cc(N2CCOCC2)cc2[nH]c(-c3c(NC[C@@H](O)c4cccc(Cl)c4)cc[nH]c3=O)nc12 [BMS536924] (first compound 0.08 µM, partner dose 0.2 µM)
COLO792
  cell count: 29.6%
COLO800
  cell count: 89.2%
COLO829
  cell count: 82%
G361
  cell count: 49.3%
IPC-298
  cell count: 49.9%
IST-MEL1
  cell count: 94.7%
LB2518-MEL
  cell count: 42.8%
LOXIMVI
  cell count: 97.8%
MEL-HO
  cell count: 81.4%

## Cn1c(Nc2ccc(C(F)(F)F)cc2)nc2cc(Oc3ccnc(-c4ncc(C(F)(F)F)[nH]4)c3)ccc21 + O=C(Nc1cccc(Cl)c1)Nc1ncc(CCNc2ncnc3ccsc23)s1 [SNS314] (first compound 0.08 µM, partner dose 0.0008 µM)
COLO792
  cell count: 39%
COLO800
  cell count: 96.9%
COLO829
  cell count: 77.2%
G361
  cell count: 64.6%
IPC-298
  cell count: 53.3%
IST-MEL1
  cell count: 92.3%
LB2518-MEL
  cell count: 40.6%
LOXIMVI
  cell count: 43.4%
MEL-HO
  cell count: 74.8%

## Clc1ccc(Nc2nnc(Cc3ccncc3)c3ccccc23)cc1 [vatalanib] + CC(C)(C)c1cnc(CSc2cnc(NC(=O)C3CCNCC3)s2)o1 [SNS-032] (first compound 2 µM, partner dose 0.01 µM)
COLO792
  cell count: 92.4%
COLO800
  cell count: 132%
COLO829
  cell count: 110%
G361
  cell count: 92%
IPC-298
  cell count: 90.1%
IST-MEL1
  cell count: 87.1%
LB2518-MEL
  cell count: 92%
LOXIMVI
  cell count: 104%
MEL-HO
  cell count: 88.2%

## COCC[n+]1c2c(n(Cc3cnccn3)c1C)C(=O)c1ccccc1C2=O + CN(C)S(=O)(=O)c1ccc2c(c1)/C(=C/c1cc3c([nH]1)CCCC3)C(=O)N2 [SU6656] (first compound 0.0004 µM, partner dose 0.4 µM)
COLO792
  cell count: 97.6%
COLO800
  cell count: 63.5%
COLO829
  cell count: 88.2%
G361
  cell count: 95.3%
IPC-298
  cell count: 91.4%
IST-MEL1
  cell count: 83.3%
LOXIMVI
  cell count: 98.7%
MEL-HO
  cell count: 104%

## OCc1c[nH]c2ccccc12 [Indole-3-carbinol] + COc1ccc2c(c1)CCC1C2CCC2(C)C(NCCCCCCN3C(=O)C=CC3=O)CCC12 [U73122] (first compound 0.8 µM, partner dose 0.4 µM)
COLO792
  cell count: 89.6%
COLO800
  cell count: 92.5%
COLO829
  cell count: 78.7%
G361
  cell count: 118%
IPC-298
  cell count: 104%
IST-MEL1
  cell count: 108%
LB2518-MEL
  cell count: 107%
LOXIMVI
  cell count: 87.7%
MEL-HO
  cell count: 93.6%

## Nc1cccc2c1CN(C1CCC(=O)NC1=O)C2=O (centres undefined) [lenalidomide] + NCC(=O)Nc1ccc(-n2nc(C(F)(F)F)cc2-c2ccc3c(ccc4ccccc43)c2)cc1 [OSU03012] (first compound 1 µM, partner dose 1 µM)
COLO792
  cell count: 90.2%
COLO800
  cell count: 123%
COLO829
  cell count: 73.2%
G361
  cell count: 94.4%
IPC-298
  cell count: 88.6%
IST-MEL1
  cell count: 94.3%
LB2518-MEL
  cell count: 96.9%
LOXIMVI
  cell count: 99.5%
MEL-HO
  cell count: 119%

## Clc1ccc(Nc2nnc(Cc3ccncc3)c3ccccc23)cc1 [vatalanib] + O=c1cc(-c2cccc3c2Sc2ccccc2S3)oc(N2CCOCC2)c1 [KU55933] (first compound 2 µM, partner dose 1 µM)
COLO792
  cell count: 85.5%
COLO800
  cell count: 134%
COLO829
  cell count: 89.7%
G361
  cell count: 85%
IPC-298
  cell count: 93.3%
IST-MEL1
  cell count: 99.3%
LB2518-MEL
  cell count: 135%
LOXIMVI
  cell count: 112%
MEL-HO
  cell count: 85.3%

## Nc1cccc2c1CN(C1CCC(=O)NC1=O)C2=O (centres undefined) [lenalidomide] + C[C@@H]1CCN(C(=O)CC#N)C[C@@H]1N(C)c1ncnc2[nH]ccc12 [CP690550] (first compound 1 µM, partner dose 1 µM)
COLO792
  cell count: 95%
COLO800
  cell count: 133%
COLO829
  cell count: 104%
G361
  cell count: 104%
IPC-298
  cell count: 105%
IST-MEL1
  cell count: 101%
LB2518-MEL
  cell count: 88.8%
LOXIMVI
  cell count: 113%
MEL-HO
  cell count: 105%

## OCc1c[nH]c2ccccc12 [Indole-3-carbinol] + Cc1cc([N+](=O)[O-])ccc1NS(=O)(=O)c1cc(Cl)ccc1Cl [FH535] (first compound 0.8 µM, partner dose 1 µM)
COLO792
  cell count: 95.6%
COLO800
  cell count: 86.1%
COLO829
  cell count: 137%
G361
  cell count: 94.2%
IPC-298
  cell count: 90.3%
IST-MEL1
  cell count: 91.3%
LB2518-MEL
  cell count: 104%
LOXIMVI
  cell count: 92.9%
MEL-HO
  cell count: 101%

## Nc1cccc2c1CN(C1CCC(=O)NC1=O)C2=O (centres undefined) [lenalidomide] + NC(=O)Nc1cc(-c2cccc(F)c2)sc1C(=O)N[C@H]1CCCNC1 [AZD7762] (first compound 1 µM, partner dose 0.02 µM)
COLO792
  cell count: 92.5%
COLO800
  cell count: 103%
COLO829
  cell count: 120%
G361
  cell count: 118%
IPC-298
  cell count: 105%
IST-MEL1
  cell count: 106%
LB2518-MEL
  cell count: 151%
LOXIMVI
  cell count: 131%
MEL-HO
  cell count: 91.4%

## COCC[n+]1c2c(n(Cc3cnccn3)c1C)C(=O)c1ccccc1C2=O + COc1cc2c(Oc3ccc4[nH]c(C)cc4c3F)ncnc2cc1OCCCN1CCCC1 [cediranib] (first compound 0.0004 µM, partner dose 0.4 µM)
COLO792
  cell count: 86.9%
COLO800
  cell count: 52.5%
COLO829
  cell count: 88.2%
G361
  cell count: 84.3%
IPC-298
  cell count: 93%
IST-MEL1
  cell count: 80.8%
LB2518-MEL
  cell count: 81.7%
LOXIMVI
  cell count: 93%
MEL-HO
  cell count: 104%
